Each structure is given as a SMILES string. The whole screen tested about 310,000 compounds, of which about 14,000 (4.5%) showed an effect of 50% or more. Effects have a minus sign here. The list shows a part of the results.
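Note: peak tail current of the secondary pulse compared with the same well before compound.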

This test deals with human ether-à-go-go-related gene (hERG) potassium channel (human, UniProt Q12809). The test can be described thus: primary screen, population patch clamp on CHO cells stably expressing hERG.
human ether-à-go-go-related gene (hERG) potassium channel, sequence (Q12809 whole entry, looked up): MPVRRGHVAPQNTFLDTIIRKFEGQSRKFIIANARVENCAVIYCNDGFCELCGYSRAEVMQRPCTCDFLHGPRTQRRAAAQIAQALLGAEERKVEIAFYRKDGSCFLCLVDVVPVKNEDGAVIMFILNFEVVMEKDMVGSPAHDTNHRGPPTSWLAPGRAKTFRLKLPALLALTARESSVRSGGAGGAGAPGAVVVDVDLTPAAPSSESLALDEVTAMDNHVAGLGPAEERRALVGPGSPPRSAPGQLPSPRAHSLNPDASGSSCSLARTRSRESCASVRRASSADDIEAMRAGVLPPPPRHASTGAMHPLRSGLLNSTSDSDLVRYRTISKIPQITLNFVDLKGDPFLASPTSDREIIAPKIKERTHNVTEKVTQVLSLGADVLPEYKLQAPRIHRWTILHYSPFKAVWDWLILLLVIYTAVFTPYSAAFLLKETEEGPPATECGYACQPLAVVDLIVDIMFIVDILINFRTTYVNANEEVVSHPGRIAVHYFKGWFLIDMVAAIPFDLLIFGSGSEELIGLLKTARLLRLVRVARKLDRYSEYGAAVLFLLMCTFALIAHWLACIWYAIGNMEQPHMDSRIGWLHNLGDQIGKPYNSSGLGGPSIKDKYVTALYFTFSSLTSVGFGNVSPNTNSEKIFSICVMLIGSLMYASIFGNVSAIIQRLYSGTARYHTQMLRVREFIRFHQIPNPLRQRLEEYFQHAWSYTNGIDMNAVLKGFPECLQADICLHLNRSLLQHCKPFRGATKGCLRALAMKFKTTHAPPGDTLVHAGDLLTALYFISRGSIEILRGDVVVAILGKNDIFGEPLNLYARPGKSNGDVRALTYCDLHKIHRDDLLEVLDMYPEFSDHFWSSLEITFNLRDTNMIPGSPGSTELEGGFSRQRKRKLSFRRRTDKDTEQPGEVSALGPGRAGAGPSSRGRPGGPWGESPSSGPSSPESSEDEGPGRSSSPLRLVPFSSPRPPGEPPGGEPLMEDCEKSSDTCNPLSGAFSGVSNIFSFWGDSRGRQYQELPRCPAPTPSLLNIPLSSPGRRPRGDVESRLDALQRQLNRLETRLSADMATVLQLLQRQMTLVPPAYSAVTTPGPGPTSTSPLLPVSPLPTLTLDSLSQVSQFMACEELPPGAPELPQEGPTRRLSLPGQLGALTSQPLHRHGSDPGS
Turning to `COc1ccc(S(=O)(=O)N2CCOCC2)cc1NC(=O)CN1CCCCCC1`, the “hERG current change (%, negative = inhibition) at 10uM” value is -1.81%.
Next, `CCCOC(c1ccccc1)(c1ccc(C(F)(F)F)cc1)C(Oc1nc(C)cc(C)n1)C(=O)O` (stereo not shown): 18.1%.
Next, `CCCCc1c(C)nc2ccc(C)cc2c1SCCC(=O)O`: 0.52%; `O=[N+]([O-])c1cccc(/C=N/Nc2cc(N3CCOCC3)ncn2)c1`: 5.8%; `C/C(=C\c1ccc(C(=O)O)cc1)c1ccc2c(c1)C(C)(C)CCC2(C)C`: 18.3%.
Next, `COc1ccc(S(=O)(=O)N2CC(O)CC2C(=O)Nc2cccnc2)cc1` (stereo not shown): 11.1%; `CCc1ccc(-c2ccc3nnc(SC)n3n2)cc1`: -23%.
On to `CCn1c(SCC(=O)Nc2ccc(N3CCOCC3)cc2)nnc1-c1ccncc1`, for which the “hERG current change (%, negative = inhibition) at 10uM” value is reported as 13.6%.
Under `Cc1cc(C)c(S(N)(=O)=O)c(C)c1-n1cnnn1` stands 7.82%; under `COc1ccc(Cl)cc1Nc1nc(C)cc(C)c1C(N)=O`, 14.3%; under `O=C(O)CCCNC(=O)CCn1nnc2ccccc2c1=O`, 3.39%.
Under `COc1ccc(OCC(=O)Nc2c(C(=O)N(CCN(C)C)Cc3ccco3)oc3ccccc23)cc1` stands -77%.
`C/C(=N\O)C(C)(C)Nc1ccc(Br)cc1`: the “hERG current change (%, negative = inhibition) at 10uM” value was 15.8%.
In the case of `COC(=O)COc1ccc2c(=O)c(-c3ccccc3OC)coc2c1`, the “hERG current change (%, negative = inhibition) at 10uM” value was found to be 10.2%.
Under `Cc1ccc(CNC(=O)c2cc(C3CC3)nc3c2cnn3C(C)C)cc1` stands -43.8%.
For the compound `COC(=O)C(C)Sc1nnc(Cc2cc(=O)[nH]c(=O)[nH]2)n1-c1cccc(OC)c1` (stereo not shown), the “hERG current change (%, negative = inhibition) at 10uM” value is 11.5%.
Under `CCOCCCn1c(=S)[nH]c2cc(C(=O)NCCN(CC)CC)ccc2c1=O` stands -23.2%.
Next, `CC(C)(C)C(=O)CSc1ncnc2c1cnn2-c1ccccc1`: -25.5%; `O=C(NCc1ccncc1)Nc1cccc(Cl)c1`: -8.74%; `Cc1occc1C(=O)NC(C)c1ccc2c(c1)OCO2` (stereo not shown): 2.61%.
Next, `CC(NS(=O)(=O)c1ccc2c(c1)C(C)(C)C(=O)N2C)c1ccccc1` (stereo not shown): -17.1%; `Cc1cccc(C(=O)/C=C2/c3ccccc3CC(C)(C)N2C)c1`: -10.6%.
As to `Cc1cc(NC(=O)NN2CCOCC2)nn1-c1c(Cl)cccc1Cl`, the “hERG current change (%, negative = inhibition) at 10uM” value is 17.9%.
Next, `CC(C)C(=O)N1CCN(c2cc(N3CCN(C)CC3)c(F)cc2[N+](=O)[O-])CC1`: -18.4%.
As for `Cl.O=C(CCCN1CCC(c2ccccc2)C1)c1ccc2c(c1)OCCO2` (stereo not shown), the “hERG current change (%, negative = inhibition) at 10uM” value is on record as -70.3%.
In the case of `Cc1cccc(NC(=O)Cc2ccc(-c3ccccc3)cc2)n1`, the “hERG current change (%, negative = inhibition) at 10uM” value is on record as 9.47%.
Under `COc1ccc(N2CCN(C(=O)c3ccccc3NS(=O)(=O)c3ccccc3)CC2)cc1` stands -5.35%; under `CC1(c2nnc(-c3ccccc3)o2)CC(c2cccnc2)=NO1` (stereo not shown), 10.5%; under `O=c1c2ccccc2cnn1Cc1n[nH]c(=S)n1C1CC2CCC1C2` (stereo not shown), 8.9%.
Next, `O=C(NC1CCCCC1)c1cccc(Cn2cc(Cl)cn2)c1`: 0.803%; `CCc1ccc(NC(=S)NC2CC3CCCC(C2)N3Cc2cccs2)cc1` (stereo not shown): -20.4%.
Under `COc1ccc(OC)c(C(=O)CSc2nc3ccccc3n2CC(=O)NC(C)(C)C)c1` stands 19.3%; under `Cc1cccc(CCN2C(Nc3ccccc3)=NC[C@@H]2CC(C)C)c1`, -67.5%; under `COc1ccc(Cc2nc(-c3ccc(NC(=O)c4cccnc4)cc3)no2)cc1`, 21.2%.
Take `O=C(c1ccc([N+](=O)[O-])cc1)N1CCc2ccccc21`: the “hERG current change (%, negative = inhibition) at 10uM” value is reported as -8.31%.
Next, `CCCOC(=O)CCCC[C@H]1SC[C@@H](NC(=O)OC)[C@H]1NC(=O)OC`: -3.47%.
Under `CC(C)C[C@H]1CN=C(N(C)C)N1CC1CCCC1` stands 0.21%.
Under `CC(Sc1n[nH]c(N)n1)C(=O)Nc1ccccc1-c1ccccc1` (stereo not shown) stands 14.8%.
On to `CC1(C)CC(=O)C=C(c2ccc3ccccc3c2)C1`, for which the “hERG current change (%, negative = inhibition) at 10uM” value is -3.37%.
Next, `COc1ccccc1OCCCCN1CCCCC1`: -1.89%; `Cc1csc(NC(=O)c2ccccc2[N+](=O)[O-])n1`: 2.69%; `CC12CCC(=O)N1C(C(=O)Nc1cc(Cl)ccc1N1CCOCC1)CS2` (stereo not shown): -41.5%.
Consider `CCc1noc(C)c1C(=O)NNC(=O)COc1ccc(C)c(C)c1`, for which the “hERG current change (%, negative = inhibition) at 10uM” value stood at 5.47%.
Regarding `CN(Cc1ccc(F)cc1)C(=O)c1cc(COc2ccc(-n3cncn3)cc2)on1`, the “hERG current change (%, negative = inhibition) at 10uM” value was -78.3%.
As for `COc1ccc(COC(=O)NNC(=O)c2ccccc2Cl)cc1`, the “hERG current change (%, negative = inhibition) at 10uM” value was -3.85%.
Next, `Cc1ccc(C)c(N2CCN(CCCNC(=O)Cn3cc4c(n3)CCC(C)C4)CC2)c1` (stereo not shown): -63.4%; `COc1cccc(CNCc2ccc(SC)cc2)c1OC`: -27.9%; `O=C(O)CCC(=O)c1ccc2c(c1)OCCCO2`: 12.4%.
Next, `Cc1ccc(N2CN=C(c3ccccc3)NC2=S)cc1`: -20.4%; `Cn1cnnc1SC(C(=O)Nc1cc(Cl)cc(Cl)c1)c1ccccc1` (stereo not shown): 20.9%; `CCOC(=O)c1ccc(NC(=S)NC2CC(C)(C)NC(C)(C)C2)cc1`: -3.4%.
Regarding `CCOc1c(C)cc(S(=O)(=O)NCc2ccccn2)c(C)c1C`, the “hERG current change (%, negative = inhibition) at 10uM” value is 19.7%.
Under `O=C(N/N=C/c1ccco1)c1[nH]ncc1Br` stands 24.3%.
Next, `O=C(NCCNc1ccc([N+](=O)[O-])cc1)c1ccccc1F`: -42.8%; `COCCCNC(=O)C(=O)N/N=C/c1ccc(OCC(=O)Nc2cccc(Cl)c2C)c(OC)c1`: -0.6%; `CCc1ccccc1N1CC(C(=O)Nc2cc(S(=O)(=O)N3CCCC3)ccc2Cl)CC1=O` (stereo not shown): -22.2%.
Next, `COc1cc(/C=C/C2=CC(C)(C)NC(=S)N2)cc(OC)c1OC`: 14.9%.
`O=C(Nc1ccon1)c1ccc(S(=O)(=O)N2CCOCC2)cc1`: the “hERG current change (%, negative = inhibition) at 10uM” value is 31.8%.
Next, `COc1ccccc1N1Cc2ccc(OC)c(OC)c2C1=O`: 12.1%; `Nc1nc(-c2ccc(C(=O)O)cc2)cs1`: 14.3%; `CC(C)[C@H]1C(=O)Nc2ccccc2N1C(=O)N[C@@H](Cc1ccccc1)C(=O)N[C@H](Cc1ccccc1)C(=O)O`: 1.06%.
As to `Cc1ccn(CCNC(=O)C2CCC(=O)N(CCc3ccc(Cl)cc3)C2)n1` (stereo not shown), the “hERG current change (%, negative = inhibition) at 10uM” value is -55.3%.
With `CCN(CC)S(=O)(=O)c1ccc(OC)c(NC(=O)c2cccc(C)c2[N+](=O)[O-])c1`, the “hERG current change (%, negative = inhibition) at 10uM” value was -14.5%.
In the case of `O=[N+]([O-])c1ccc2nc(CN3CCCCC3)[nH]c2c1`, the “hERG current change (%, negative = inhibition) at 10uM” value is on record as -15%.
Next, `COc1ccc(-c2cc(C(=O)Nc3cc(OC)cc(C(=O)Nc4cccc(C(F)(F)F)c4)c3)[nH]n2)cc1`: -3.45%; `COCc1ccc(CN2CCCC(CO)(Cc3cccc(OC)c3)C2)o1` (stereo not shown): -26.2%; `COc1ccc(C(=O)Nc2ccc(C(=O)c3ccccc3)cc2)cc1`: 22.9%.
On to `COc1cccc(CNC(=O)CN2C(=O)COc3ccc(S(=O)(=O)N4CCCCCC4)cc32)c1`, for which the “hERG current change (%, negative = inhibition) at 10uM” value came to 24.8%.
Next, `O=C(NCCN1CCOCC1)Nc1ccc(Cl)cc1`: 1.69%; `CCOC(=O)CNC(=O)C1c2cc(OC)c(OC)cc2C(=O)N(C)C1c1ccccc1F` (stereo not shown): -2.8%; `CCOC(=O)c1cc(-c2cc3ccccc3o2)n[nH]1`: 12.3%.
Under `COc1ccc2nc(NC(=O)C(NS(=O)(=O)c3cccc4nsnc34)C(C)C)sc2c1` (stereo not shown) stands 10.4%; under `CCOC(=O)C1CCC/C1=N\NC(=O)CN(c1cc(OC)ccc1OC)S(=O)(=O)c1ccccc1` (stereo not shown), -22.9%; under `COc1ccc(CCNC(=O)CC2(CC3=NS(=O)(=O)c4ccccc4N3)CCCC2)cc1OC`, -14.4%.
Next, `Cc1cccc(NC(=O)NC2CCCCCCC2)c1C`: 14.1%; `CC(/C=N\NC(=O)Cn1c(C)nc2ccccc21)=C\c1ccccc1`: 17.6%; `Clc1ccc(COn2c(-c3ccc(Cl)cc3Cl)nc3ncccc32)cc1`: -18.8%.
Turning to `COCCN(C(=O)c1ccco1)c1nnc(-c2ccc(OC)cc2)s1`, the “hERG current change (%, negative = inhibition) at 10uM” value is reported as -14.8%.
Under `CCCCOc1ccc(C(=O)NN2C(=O)NC3(CCCCC3)C2=O)cc1OC` stands 8.93%; under `CCC(=O)N1CCc2cc(Br)cc(S(=O)(=O)N(C)c3ccc(OC)cc3OC)c21`, 3.29%.
`Cc1cc2cc(C(c3nnnn3C3CCCC3)N(Cc3cccnc3)Cc3ccco3)c(=O)[nH]c2cc1C` (stereo not shown): the “hERG current change (%, negative = inhibition) at 10uM” value is -24.3%.
Take `COc1ccccc1NC(=O)CCNS(=O)(=O)c1ccc2[nH]c(=O)oc2c1`: the “hERG current change (%, negative = inhibition) at 10uM” value is given as 7.64%.
Under `COc1cccc(CCc2nnc(CCC(=O)N(C)C3CC(C)(C)NC(C)(C)C3)o2)c1` stands 13.4%; under `Cn1c(CN2CCCC2)nc2cc(NC(=O)c3ccc(Cl)cc3)ccc21`, -82%.
Under `CN(C(=O)Cc1c(C(=O)O)n(C)c2ccccc12)c1ccc(F)cc1` stands 19.8%; under `CN(C)c1ccc(/C=N/NC(=O)CCc2nc3ccccc3[nH]2)cc1`, 10.8%; under `C/C(=C\c1ccccc1)C(=O)Nc1ccc(Cl)cn1`, -9.54%.
Next, `CN(C)c1ccc(C(=O)Nc2nc3c(s2)CCCC3)cc1`: -3.02%.

Source of the values: article PMC4336329 (PLoS ONE, 2015).
